Out of some 120,000 compounds screened, about 5,300 (4.4%) were called active. The inconclusive results got no clear call from the source; some entries with a clear call stand among them for comparison. Calls come from the whole dose curve; as a rule, active = well fitted inhibition curve with a large enough effect; inconclusive = small, poorly fitted or top-dose-only effect; inactive = no such curve, though single readings can be large or run the other way. A potency beside an inconclusive call is a rough fit, not a confirmed value. Some compounds were tested as several samples or in several runs, with calls that do not always agree.
Test: qHTS Primary assay for Inhibitors of Plasmodium falciparum Dd2 growth in vitro; note: nearly all actives have a fitted effect of over 65% in size
Details: P. falciparum Dd2 growth, SYBR Green, 72 h; series mostly up to 28.9 µM
Method in brief: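 Readout: SYBR Green fluorescence, 485 nm excitation, 535 nm emission, after ~16 h lysis at 37C. Before that, Dd2-infected red cells (2.5% hematocrit) grew 72 h with compound, 29 uM top final concentration.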
With `COc1ccc(-c2cc3nc(C)c(CCC(=O)NC(C)c4ccccc4)c(C)n3n2)c(OC)c1` (centres undefined) the Potency was inconclusive: 10 µM [inhibitor, single point]. For `COc1ccc(CC(=O)N2C[C@@H](C(N)=O)[C@H](c3nc(C)no3)C2)cc1Cl`, the Potency was inconclusive: 2.24 µM [inhibitor, single point]. With `O=C(NCCN1CCOCC1)c1c(OCC2CC2)cc(=O)n2c1CCOCC2` the Potency was “inactive”. In the case of `Cc1cccc(NC(=O)CN2C(=O)CSc3ccc(S(=O)(=O)N4CCCC4)cc32)c1C`, the Potency is reported as “inactive”. With `Cc1nn2c(c1-c1ccccc1-c1ccccc1)N(CC1CC1)CCC2` the Potency was active: 0.316 µM. For `C=CCN(CC=C)C(=O)c1ccc(CN2C(=O)NC3(CCS(=O)(=O)CC3)C2=O)cc1`, the Potency was “inactive”. With `COc1cccc(NC(=O)CSc2c3c(nc4ccccc24)CCCC3)c1` the Potency was inconclusive: 14.1 µM [inhibitor, single point]. For `COc1ccccc1N1CCN([C@H]2[C@@H]3OC[C@@H](O3)[C@@H](NCc3ccc(-c4ccccc4)cc3)[C@@H]2O)CC1`, the Potency was inconclusive: 1.41 µM [inhibitor, partial curve]. In the case of `CCOc1ccc(N(CC)S(=O)(=O)N2CCCC(C(=O)Nc3ccc(OC)c(Cl)c3)C2)cc1` (centres undefined), the Potency is reported as inconclusive: 17.8 µM [inhibitor, single point]. In the case of `COCc1ccc(CN2CCCC(CNC(=O)c3cccc(OC)c3OC)C2)o1` (centres undefined), the Potency is reported as inconclusive: 17.8 µM [inhibitor, single point]. For `CC(c1n[nH]c(=O)n1CCC(=O)O)n1cccn1` (centres undefined), the Potency was “inactive”. For `Cc1ccc(-c2ccccc2C=O)c(C)c1`, the Potency was “inactive”. For `c1ccc(CCCN2CC[C@H](c3nc4ccccc4s3)C2)cc1`, the Potency was inconclusive: 25.1 µM [inhibitor, single point]. With `Cc1ccc(C2CCN(C(=O)c3cnn(-c4ccc(C)c(C)c4)c3C3CCN(C(=O)OC(C)(C)C)CC3)C2)cc1` (centres undefined) the Potency was inconclusive: 1.78 µM [inhibitor, partial curve, poor fit]. With `O=C(NC1CCCCC1)N1C2CCC1CN(c1ccc(C(F)(F)F)cc1)C2` the Potency was inconclusive: 11.2 µM [inhibitor, single point]. In the case of `c1cnc2nc(-c3c[nH]c4ncccc34)[nH]c2c1`, the Potency is reported as active: 25.1 µM. For `CC(=O)Nc1cc(-c2cc(C(=O)NCc3cc(C)on3)c3c(c2)N(C)CCO3)ccn1`, the Potency was active: 7.94 µM. With `O=C(NCCc1ccccc1)C1CCc2ncc(-c3ccsc3)n2C1` (centres undefined) the Potency was inconclusive: 10 µM [inhibitor, single point]. With `Cc1nc(NC(C)c2nc(-c3cccnc3)no2)c2cccnc2n1` (centres undefined) the Potency was active: 3.55 µM. For `COc1ccc(CN2CCCC23Cc2ccccc2N(C(=O)c2ccc(Cl)cc2)C3)cc1` (centres undefined), the Potency was inconclusive: 11.2 µM [inhibitor, single point]. For `c1ccc(CCN2CCNc3cc(N4CCN(c5ccccn5)CC4)ncc3C2)cc1`, the Potency was inconclusive: 3.16 µM [inhibitor, partial curve, poor fit]. For `FC(F)(F)c1ccc(CN2CC[C@H](c3nc4ccccc4[nH]3)C2)cc1`, the Potency was “inactive”. For `CCn1c(CN2CCC(C)CC2)nc2cc(NC(=O)c3ccc([N+](=O)[O-])cc3)ccc21`, the Potency was “inactive”. In the case of `C[C@@H]1CN(C(=O)CCN(C)S(C)(=O)=O)C[C@@]1(O)C1CC1`, the Potency is reported as “inactive”. With `CC(C)CCNC(=O)C(=O)Nc1c2c(nn1-c1ccc(Cl)cc1)CSC2` the Potency was inconclusive: 17.8 µM [inhibitor, single point]. For `COc1ccc(C(=O)N2CCC(Oc3ncccc3C(=O)N3CCCCC3)C2)c(C)c1` (centres undefined), the Potency was inconclusive: 11.2 µM [inhibitor, single point]. With `CCC1Oc2ccc(NC(=O)c3c(F)cccc3F)cc2CN(CCc2ccc(F)cc2)C1=O` (centres undefined) the Potency was inconclusive: 10 µM [inhibitor, partial curve, poor fit]. In the case of `COCCc1nncn1C1CCN(C(=O)c2ccccc2C(F)(F)F)CC1`, the Potency is reported as “inactive”. For `CCCNC(=O)C1COC2(CCC(C)CC2)N1C(=O)CC` (centres undefined), the Potency was “inactive”. For `COc1ncccc1-c1cc(C(=O)NCCN2CCOCC2)c2c(c1)ncn2C`, the Potency was “inactive”. In the case of `Cc1cccc(Nc2nnc(-c3ccc(C)c(S(=O)(=O)N4CCN(C)CC4)c3)c3ccccc23)c1`, the Potency is reported as active: 10 µM. In the case of `Cc1nn2c(=O)cc(COC(=O)c3cccc(NC(=O)c4ccc(F)cc4)c3)nc2s1`, the Potency is reported as inconclusive: 17.8 µM [inhibitor, single point]. In the case of `COc1cc(NC(=O)c2ccc3c(c2)N(C)C2CCCN2C3=O)cc(OC)c1` (centres undefined), the Potency is reported as inconclusive: 3.98 µM [inhibitor, full curve, poor fit]. With `COc1ccccc1Oc1ncccc1CNC1CCCC1` the Potency was inconclusive: 8.91 µM [inhibitor, partial curve, poor fit]. For `COCCn1nnnc1C1CC2(CCOCC2)C(=O)N1Cc1cccc(F)c1` (centres undefined), the Potency was “inactive”. With `COc1ccc(OC)c(NC(=O)N2CC3CCCN3c3ccccc32)c1` (centres undefined) the Potency was inconclusive: 20 µM [inhibitor, single point]. For `COc1ccccc1-c1nc2nccc(-c3cc(OC)c(OC)c(OC)c3)n2n1`, the Potency was inconclusive: 15.8 µM [inhibitor, partial curve, poor fit]. In the case of `CCOC(=O)c1cccc(NC(=O)N2CC=C(c3c[nH]c4ccccc34)CC2)c1`, the Potency is reported as active: 6.31 µM. With `COc1cccc(N2CCN(c3ncnc4c3c(-c3ccccc3)cn4-c3cccc(C(F)(F)F)c3)CC2)c1` the Potency was inconclusive: 10 µM [inhibitor, single point]. For `CN(C)c1cccc(NC(=O)Cn2c3c(c(=O)n2Cc2ccccc2)CCN(Cc2ccccc2)C3)c1`, the Potency was “inactive”. In the case of `Cc1cc(Nc2ccc(Br)c(C)c2)n2nc(-c3ccco3)nc2n1`, the Potency is reported as inconclusive: 12.6 µM [inhibitor, partial curve]. With `CCNC(=O)N[C@H]1C[C@@H](Cc2cc(COc3ccccc3)on2)C1(C)C` the Potency was inconclusive: 3.16 µM [inhibitor, single point]. With `O=C(NCC1CN(Cc2ccccn2)CC12CN(c1ccccc1)C2)c1ccccc1` (centres undefined) the Potency was “inactive”. In the case of `COc1cccc(-c2cc3c(=O)n(CCNC(=O)c4ccccn4)ccn3n2)c1`, the Potency is reported as inconclusive: 12.6 µM [inhibitor, single point].
Potency is the fitted concentration of half-maximal effect; tags give direction and shape of the fitted curve.
